From PubChem BioAssay AID1768 (National Center for Advancing Translational Sciences (NCATS), 2009)
Hit rate of the full screen: of about 270,000 compounds, about 620 (0.23%) were called active. The inconclusive results got no clear call from the source; some entries with a clear call stand among them for comparison. Calls come from the whole dose curve; as a rule, active = well fitted inhibition curve with a large enough effect in the polarisation, with a control signal flat (not every such curve was filed as active); inconclusive = small, poorly fitted or top-dose-only effect, or effect the other way, or a change in a side signal; inactive = no such curve, though single readings can be large or run the other way; the % refers to the polarisation. Potencies beside an inconclusive call are fits to weak or partial responses and may not hold up. “Side channel” marks fits to a control or component signal instead of the main read-out.
Potency is the fitted concentration of half-maximal effect; tags give direction and shape of the fitted curve or compound fluorescence and quenching.

The molecules below were run against Menin (Homo sapiens) (UniProt O00255) (assay: qHTS Assay for Inhibitors Targeting the Menin-MLL Interaction in MLL Related Leukemias: Competition With Texas Red Labeled MLL-derived Mutant Peptide). Settings: fluorescence polarization; series mostly up to 61.6 µM.
UniProt O00255, sequence (O00255 whole entry, looked up): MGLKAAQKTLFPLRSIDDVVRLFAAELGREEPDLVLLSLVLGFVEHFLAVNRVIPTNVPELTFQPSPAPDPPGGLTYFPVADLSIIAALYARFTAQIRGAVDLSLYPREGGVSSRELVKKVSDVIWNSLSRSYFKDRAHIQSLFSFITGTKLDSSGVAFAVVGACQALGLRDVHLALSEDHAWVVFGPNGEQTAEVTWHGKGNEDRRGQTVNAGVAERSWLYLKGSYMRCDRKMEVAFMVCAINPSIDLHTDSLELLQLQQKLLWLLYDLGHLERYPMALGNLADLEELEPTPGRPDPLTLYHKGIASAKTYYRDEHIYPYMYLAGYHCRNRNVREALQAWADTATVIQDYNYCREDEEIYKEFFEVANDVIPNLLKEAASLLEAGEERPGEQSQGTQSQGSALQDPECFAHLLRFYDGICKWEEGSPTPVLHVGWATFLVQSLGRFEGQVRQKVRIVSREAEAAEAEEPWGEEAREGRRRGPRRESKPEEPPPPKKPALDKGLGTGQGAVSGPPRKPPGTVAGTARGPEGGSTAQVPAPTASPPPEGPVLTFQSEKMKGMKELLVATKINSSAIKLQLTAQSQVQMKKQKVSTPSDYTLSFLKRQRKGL
With `O=C(CCc1nnc(-c2ccc(-c3ccccc3)cc2)o1)N1CCCCC1` the Potency was inconclusive: 3.55 µM [fluorescent, side channel, single point]. In the case of `Cc1c(/C=N\NC(=O)c2cc3ccccc3o2)c2ccccc2n1C`, the Potency was inconclusive: 25.1 µM [quencher, side channel, single point]. For `O=C(O)c1ccc(NS(=O)(=O)/C=C/c2ccccc2)cc1O`, the Potency was inconclusive: 31.6 µM [quencher, single point]. For `COC(=O)c1ccc(/C=N/Nc2nc(-c3ccc(C)cc3)cs2)cc1`, the Potency was inconclusive: 22.4 µM [quencher, side channel, partial curve]. With `O=C1C(c2c(O)[nH]c3ccccc23)=Nc2ccccc21` the Potency was inconclusive: 1.12 µM [quencher, side channel, full curve]. With `COc1cccc2cc(C(=O)C3=C(O)C(=O)N(CCN4CCOCC4)C3c3ccc(C)o3)oc12` (stereo not drawn) the Potency was inconclusive: 35.5 µM [quencher, side channel, single point]. `CCNc1ccc(C(=O)OCC(=O)N2CCCC2)cc1[N+](=O)[O-]` was tested, and the Potency was “inactive”. With `Nc1nc2ccccc2n1CCOc1ccc(F)cc1` the Potency was “inactive”. In the case of `Cc1cc(C)c(S(=O)(=O)NCc2cn3c(C)csc3n2)cc1C`, the Potency was inconclusive: 31.6 µM [fluorescent, side channel, partial curve]. `C=CCn1c(O)c(N=NC(=S)Nc2ccccc2F)c2cc(S(=O)(=O)N3CCOCC3)ccc21` was tested, and the Potency was inconclusive: 7.94 µM [quencher, side channel, partial curve]. `O=C(NC(=S)Nc1sc2c(c1C(=O)O)CCCC2)c1ccccc1` was tested, and the Potency was inconclusive: 39.8 µM [quencher, single point]. With `Cc1cccn2c(NCc3ccc4c(c3)OCO4)c(-c3ccc(O)cc3)nc12` the Potency was “inactive”. For `O=C(CN1CCN(Cc2ccccc2)CC1)Nc1ccc(Br)cc1`, the Potency was inconclusive: 28.2 µM [inhibitor, single point]. With `Cc1cccn2c(=O)c3cc(C(=O)NCCCN4CCCC4=O)n(C)c3nc12` the Potency was inconclusive: 39.8 µM [inhibitor, single point]. With `O=[N+]([O-])c1cccc(N(CC(O)CN2CCCC2)S(=O)(=O)c2ccccc2)c1` (stereo not drawn) the Potency was inconclusive: 8.91 µM [inhibitor, partial curve]. `C/C(=N\NS(=O)(=O)c1ccc([N+](=O)[O-])cc1)c1c[nH]c2ccccc12` was tested, and the Potency was inconclusive: 25.1 µM [quencher, side channel, single point]. For `CC(C)(C)CC(C)(C)NC(=S)Nc1ccc(S(=O)(=O)N2CCOCC2)cc1`, the Potency was inconclusive: 20 µM [quencher, side channel, single point]. For `O=C(N/N=C/c1cc(Br)c(O)c(Br)c1O)c1cccnc1`, the Potency was inconclusive: 20 µM [quencher, side channel, partial curve]. `CCCN1Cc2cccc(C(=O)NC(CC(=O)OCC)c3ccc(C)cc3)c2C1=O` (stereo not drawn) was tested, and the Potency was inconclusive: 3.55 µM [fluorescent, side channel, full curve]. In the case of `CCCCCC(=O)O/N=C(\C)c1ccn(S(=O)(=O)c2ccccc2)c1`, the Potency was inconclusive: 15.8 µM [fluorescent, side channel, partial curve]. `Cc1cccc(NS(=O)(=O)c2nnc(NC(=O)c3cccc(C)c3)s2)c1` was tested, and the Potency was inconclusive: 25.1 µM [quencher, side channel, single point]. `Cc1ccc(N(CC(=O)NC2CCCC2)C(=O)Cn2nnc(-c3ccccc3F)n2)cc1` was tested, and the Potency was inconclusive: 28.2 µM [inhibitor, single point]. For `CCCCN1CCc2c(c3ccccc3n2Cc2ccccc2)C1`, the Potency was inconclusive: 11.2 µM [fluorescent, side channel, partial curve]. For `O=C(OCCN1CCOCC1)C1(c2ccccc2)CCCCC1`, the Potency was inconclusive: 22.4 µM [fluorescent, side channel, single point]. In the case of `C=CCSc1nc2ccccc2n2cnnc12`, the Potency was inconclusive: 11.2 µM [inhibitor, partial curve]. In the case of `CC1CCCC2(C1)NC(=S)c1c(sc3c1CCCC3)N2` (stereo not drawn), the Potency was inconclusive: 28.2 µM [quencher, side channel, single point]. For `O=C(O)c1cccc(CN2C(=O)SC(Nc3cccc4ccccc34)C2=O)c1` (stereo not drawn), the Potency was inconclusive: 25.1 µM [quencher, side channel, partial curve]. For `CCN(c1ccc(NC(=O)c2ccc(Cl)nc2)cc1)C(C)C`, the Potency was inconclusive: 14.1 µM [quencher, side channel, partial curve]. With `O=C1CSC(=S)N1/N=C/c1c(F)cccc1F` the Potency was inconclusive: 17.8 µM [quencher, side channel, single point]. With `O=C(CCCN1C(=O)/C(=C\c2ccccc2)SC1=S)Nc1ccc(O)cc1` the Potency was inconclusive: 28.2 µM [quencher, side channel, single point]. For `Oc1c(Br)cc(Br)c2cccnc12`, the Potency was inconclusive: 31.6 µM [quencher, side channel, single point]. `COc1ccc(F)c(CN(C)CC2CCCN(CCc3ccc(F)cc3)C2)c1` (stereo not drawn) was tested, and the Potency was inconclusive: 11.2 µM [fluorescent, side channel, partial curve]. With `Cn1c(=O)c(NC2CCCCC2)c2c3c(cccc31)C(=O)c1ccccc1-2` the Potency was inconclusive: 17.8 µM [inhibitor, partial curve]. `CCCc1cc(=O)oc2cc(OCC(=O)NCCc3c[nH]c4ccc(OC)cc34)ccc12` was tested, and the Potency was inconclusive: 39.8 µM [fluorescent, side channel, single point]. For `CCOC(=O)C1=C(C)N=c2s/c(=C\c3ccc(C(=O)O)cc3)c(=O)n2C1c1ccc(F)cc1` (stereo not drawn), the Potency was inconclusive: 20 µM [quencher, side channel, partial curve]. For `CCOC(=O)n1c(=O)n(Cc2ccc(OC)cc2)c2ccccc21`, the Potency was inconclusive: 0.631 µM [inhibitor, full curve, poor fit]. For `CCCn1nc([N+](=O)[O-])c(C(C#N)c2nc3ccccc3s2)c(Cl)c1=O` (stereo not drawn), the Potency was inconclusive: 14.1 µM [quencher, side channel, partial curve]. In the case of `C=C(C)C(O)/C=C/c1ccc(Br)cc1` (stereo not drawn), the Potency was inconclusive: 6.31 µM [quencher, side channel, single point]. With `CCN1C(=O)CC(C(=O)Nc2ccc(F)cc2)SC1=Nc1cccc(OC)c1` (stereo not drawn) the Potency was inconclusive: 12.6 µM [quencher, side channel, partial curve]. In the case of `Cc1cc(N2CCOCC2)nc2cc(O)ccc12`, the Potency was “inactive”. For `COCCSc1nc(N)c(NC(=O)c2ccc(OC)cc2)c(=O)[nH]1`, the Potency was inconclusive: 39.8 µM [inhibitor, partial curve]. In the case of `COc1ccc(/C=N/NC(=S)NCCc2ccccc2)cc1`, the Potency was inconclusive: 35.5 µM [fluorescent, side channel, single point]. In the case of `Cc1cccc(Cn2c(N(C)Cc3ccccc3)nc3c2c(=O)[nH]c(=O)n3C)c1`, the Potency was inconclusive: 25.1 µM [inhibitor, partial curve]. In the case of `CCCCN(C)CC(O)Cn1cc(/C=C/C(=O)c2ccc(C)cc2)c2ccccc21` (stereo not drawn), the Potency was inconclusive: 2 µM [fluorescent, side channel, full curve, poor fit]. `CN(C)c1cccc(C(=O)Nc2nc3ccccc3[nH]2)c1` was tested, and the Potency was inconclusive: 25.1 µM [quencher, side channel, partial curve]. In the case of `CCN(CC)S(=O)(=O)c1ccc(N/N=C/c2ccccc2OCC(=O)O)c([N+](=O)[O-])c1`, the Potency was inconclusive: 15.8 µM [quencher, side channel, partial curve]. With `O=C(CSc1nc2ccccc2n1CCc1ccccc1)c1ccc(O)c(O)c1` the Potency was inconclusive: 15.8 µM [quencher, side channel, partial curve]. With `Cc1c(C)c2c(OCC(=O)NCc3ccccn3)cc3c(c2oc1=O)CCC(C)(C)O3` the Potency was inconclusive: 10 µM [fluorescent, side channel, partial curve]. In the case of `CCN(CCNC(=O)c1ccc(CSc2nc3ccncc3[nH]2)cc1)c1ccccc1`, the Potency was inconclusive: 17.8 µM [quencher, side channel, partial curve]. For `COc1cc(NC(=O)CN2C(=O)NC(C)(c3ccc4ccccc4c3)C2=O)c(C)cc1[N+](=O)[O-]` (stereo not drawn), the Potency was inconclusive: 8.91 µM [quencher, side channel, full curve, poor fit]. For `COc1cc2[nH]c(=S)nc(NCc3cccc(Cl)c3)c2cc1OC`, the Potency was “inactive”. For `Cc1[nH]c2ccccc2c1/C=N/NC(=O)c1ccc(N)cc1`, the Potency was inconclusive: 25.1 µM [quencher, side channel, partial curve]. With `CCCn1c(NC(=O)c2ccc(Br)cc2)nc2ccccc21` the Potency was “inactive”. In the case of `C=CCOc1ccc(CNc2ccc3[nH]c(=O)[nH]c3c2)cc1OCC`, the Potency was inconclusive: 10 µM [fluorescent, side channel, partial curve, poor fit]. In the case of `Cc1ccc(O)c(NC(=O)c2cc(-c3ccccc3Cl)on2)c1`, the Potency was inconclusive: 39.8 µM [inhibitor, single point]. `O=C(CN1CCC(c2nc3ccccc3s2)CC1)N1CCCCC1` was tested, and the Potency was “inactive”. With `CC(=O)N1CCCc2cc(S(=O)(=O)NCc3ccc(C)cc3)ccc21` the Potency was inconclusive: 1.26 µM [inhibitor, full curve]. `O=C(c1ccccc1)c1ccncc1` was tested, and the Potency was inconclusive: 0.631 µM [inhibitor, full curve, poor fit].
